Data published in PubChem BioAssay AID488969 (Vanderbilt High Throughput Screening Facility, 2010).
Whole data set: some 110,000 compounds, median “z-score” near -0.1, cut for the highest 2% near 2. The list shows a part of the results.

What follows are compounds tested against Metabotropic glutamate receptor 8 (Rattus norvegicus) (UniProt P70579) (assay: mGluR8 Gi/Go-coupled signaling modulation – cell-based, rat, thallium flux, HTS, primary screen (AID 488969)). Conditions: HEK293 rat mGluR8, GIRK (G protein-gated inwardly rectifying potassium channel) thallium flux, FluoZin2; at 10 µM; stronger effect = higher value; submaximal glutamate (EC20) added with thallium.
UniProt P70579, sequence (P70579 whole entry, looked up): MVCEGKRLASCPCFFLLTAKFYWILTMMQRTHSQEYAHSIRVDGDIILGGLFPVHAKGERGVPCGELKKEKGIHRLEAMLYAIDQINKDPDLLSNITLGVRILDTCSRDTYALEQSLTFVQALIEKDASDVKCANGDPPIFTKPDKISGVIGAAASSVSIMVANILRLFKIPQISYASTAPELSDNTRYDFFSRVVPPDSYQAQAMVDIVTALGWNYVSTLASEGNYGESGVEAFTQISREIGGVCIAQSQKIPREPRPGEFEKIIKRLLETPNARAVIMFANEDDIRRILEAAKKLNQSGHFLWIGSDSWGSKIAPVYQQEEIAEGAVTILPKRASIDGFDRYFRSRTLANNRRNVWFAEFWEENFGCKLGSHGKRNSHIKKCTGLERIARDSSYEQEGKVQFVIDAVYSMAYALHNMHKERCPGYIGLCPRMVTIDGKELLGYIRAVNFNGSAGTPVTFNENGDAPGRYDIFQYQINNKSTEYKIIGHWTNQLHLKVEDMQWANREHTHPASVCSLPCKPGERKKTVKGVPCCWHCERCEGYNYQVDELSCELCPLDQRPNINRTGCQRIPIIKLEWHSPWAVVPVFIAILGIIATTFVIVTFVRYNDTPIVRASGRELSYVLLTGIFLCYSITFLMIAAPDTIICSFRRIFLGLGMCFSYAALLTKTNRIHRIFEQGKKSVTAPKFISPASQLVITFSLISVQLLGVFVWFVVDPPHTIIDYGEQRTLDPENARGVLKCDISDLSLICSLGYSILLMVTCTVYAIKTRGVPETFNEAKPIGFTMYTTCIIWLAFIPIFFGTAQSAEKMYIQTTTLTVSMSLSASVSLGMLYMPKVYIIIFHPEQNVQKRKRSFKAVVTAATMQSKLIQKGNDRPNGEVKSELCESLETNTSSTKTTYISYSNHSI

| SMILES | z-score |
| --- | --- |
| COc1ccc(Cc2nn[nH]n2)cc1 | -1.61 |
| COc1cc(C2N(c3ccc(F)cc3)C(=O)C3CCCN32)cc(OC)c1OC (centres undefined) | 0.416 |
| COc1cc2c(cc1OC)C(c1cccnc1)CC(=O)N2 (centres undefined) | -0.295 |
| COc1ccc(NS(=O)(=O)c2cccc(-c3nnc(-c4ccccc4)o3)c2)cc1 | -0.01 |
| Clc1ccc2c(c1)C=Nc1c(NCc3ccccc3)ncnc1O2 | -0.39 |
| CC1(C)N=C(SCC(=O)Nc2ccc(Cl)cc2)C(c2ccc(Cl)cc2)=N1 | -0.255 |
| CCC(=O)n1nc(NCc2ccc(OC)c(OC)c2)nc1NCc1ccc(OC)c(OC)c1 | -0.465 |
| c1ccc2c(N3CCCCC3)nc(N3CCCCC3)nc2c1 | -0.832 |
| CCOc1ccccc1C(=O)Nc1ccccc1O | -1.3 |
| CCC(C)Sc1nc2c(c(=O)[nH]c(=O)n2C)n1CC(O)COc1ccccc1C (centres undefined) | -0.162 |
| c1ccc(Oc2cc(-c3ccccc3)nc(-c3ccccc3)n2)cc1 | -0.104 |
| O=C(NNC1=NCCC1)c1cccc(S(=O)(=O)N2CCCC2)c1 | -0.0376 |
| COC(=O)CSC1=C(C#N)C(c2ccc3c(c2)OCO3)C2=C(CCCC2=O)N1 (centres undefined) | -0.503 |
| O=C(C1CCN(S(=O)(=O)c2cccs2)CC1)N1CCCCCC1 | 0.139 |
| CN(C)S(=O)(=O)c1ccc(Cl)c(NC(=O)COc2ccccc2[N+](=O)[O-])c1 | -0.312 |
| Cc1cc(C(=O)CSc2nnc(-c3cccnc3)n2-c2ccccc2)c(C)n1CC1CCCO1 (centres undefined) | -0.185 |
| CN(c1nc(-c2ccccc2)cs1)C1CCS(=O)(=O)C1 (centres undefined) | -0.0502 |
| COc1ccc(C2CC(c3ccccc3OC(C)=O)=NN2C(=O)/C=C/c2ccccc2)cc1 (centres undefined) | -0.18 |
| Nc1nonc1C(=O)NCCN=Cc1cc(Cc2ccccc2)cc(Br)c1O | -1.18 |
| CCc1nnc(NC(=O)c2cccs2)s1 | -0.225 |
| COc1ccc(C(=O)OCC(=O)Nc2cc(C)on2)cc1S(=O)(=O)N1CCOCC1 | -0.0165 |
| CC(=O)Nc1c(S(=O)(=O)c2ccccc2)c2nc3ccccc3nc2n1Cc1ccccc1 | -0.16 |
| O=C1C2C3C=CC(C3)C2C(=O)N1Cc1ccccc1 (centres undefined) | 0.0272 |
| Cn1ncc(Cl)c1C(=O)Nc1sc2c(c1C(N)=O)CCC2 | -0.167 |
| O=S(=O)(c1ccc(NC(=S)NCCC(c2ccccc2)c2ccccc2)cc1)N1CCOCC1 | 0.0723 |
| COc1cccc(-n2nnnc2S(C)(=O)=O)c1 | -0.44 |
| CCNC(=O)NC(=O)C(C)Sc1nc2cc(C(=O)OC)ccc2c(=O)n1-c1ccccc1 (centres undefined) | 0.204 |
| Cc1noc(/C=C/c2ccco2)c1S(=O)(=O)N1CCC(C(=O)Nc2ccc(Cl)cn2)CC1 | 0.112 |
| CCCCn1c(N)c(-c2nc3ccccc3s2)c2c([N+](=O)[O-])nn(C)c(=O)c21 | 1.31 |
